Screen size: about 50,000 compounds; about 800 (1.6%) showed an effect of 50% or more. The list shows a part of the results.

The target of this experiment is Bcl-2-like protein 10 (Homo sapiens) (UniProt Q9HD36). The experiment is described as follows: TR3 peptide-Bcl-B binding displacers, biochemical primary FP assay, phenotype converters (AID 1240).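 Note: 0% = Bcl-B with tracer peptide and DMSO and 100% = tracer peptide lacking Bcl-B.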 The following applies: GST-Bcl-B / FITC-TR3 peptide fluorescence polarization; stronger effect = higher value; compound at 3.75 mg/L. On the technique in general: In fluorescence polarisation assays a small probe gives low polarisation when free and higher when bound to something large.
UniProt Q9HD36, sequence (Q9HD36 whole entry, looked up): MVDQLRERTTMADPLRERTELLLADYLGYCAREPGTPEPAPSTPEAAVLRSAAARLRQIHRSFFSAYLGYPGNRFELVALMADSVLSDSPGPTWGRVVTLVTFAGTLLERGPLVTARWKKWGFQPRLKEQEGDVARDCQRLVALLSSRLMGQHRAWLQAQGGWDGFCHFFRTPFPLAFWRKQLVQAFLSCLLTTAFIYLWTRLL
Consider `Cc1cccc(OCCNc2cc(N3CCN(C)CC3)ccc2[N+](=O)[O-])c1`, for which the displacement was -0.7%.

Consider `CCOc1cc(/C=N\NC(=O)c2ccccc2Cl)cc([N+](=O)[O-])c1O`, for which the displacement turned out to be 9.4%.

For `COc1cc(CN2CCN(Cc3ccc(Cl)cc3)CC2)cc(OC)c1O`, the displacement was 4.5%.

In the case of `CCOc1ccc(/C=C2/SC(=S)N(CC(=O)O)C2=O)cc1`, the displacement turned out to be 12.7%.

As to `Cc1ccccc1C1(c2ccccc2C)CC1C(=O)Nc1cccc([N+](=O)[O-])c1` (stereo not drawn), the displacement was -0.7%.

For the compound `O=C1NC(=S)NC(=O)C1=Cc1ccc(OCc2ccc3ccccc3c2)c(Br)c1`, the displacement is -15.1%.

Consider `CC1(C)CC(NS(=O)(=O)c2cccc([N+](=O)[O-])c2)CC(C)(C)N1`, for which the displacement is 0.1%.

On to `CC1=NN(c2ccccc2)C(=O)C1/C=C1\C(=O)NC(=O)N(c2ccc(C)cc2)C1=O` (stereo not drawn), for which the displacement came to 6.6%.

For `CCOC(=O)CCc1c(C)nc2c(C)c(-c3ccccc3)[nH]n2c1=O`, the displacement amounted to 7%.

With `C=CCN1C(=O)/C(=C\c2ccccc2OCc2cccc3ccccc23)SC1=S`, the displacement was 2.8%.

Turning to `O=C(Nc1cccc(-c2nc3ccccc3[nH]2)c1)c1ccncc1`, the displacement turned out to be 17.1%.

As to `CCCOc1ccc(C(=O)Nc2ccc(C(C)CC)cc2)cc1` (stereo not drawn), the displacement is 28.8%.

Consider `Cc1ccccc1-c1cc2nc(C)c(Cl)c(=O)n2[nH]1`, for which the displacement amounted to 12%.

As for `CC1CCN(S(=O)(=O)c2cccs2)CC1`, the displacement is -0.9%.

As to `O=C1c2ccc3c4c(ccc(c24)C(=O)N1/N=C/c1ccccc1)CC3`, the displacement was determined as 7.7%.

As to `CC(=O)Nc1ccc(S(=O)(=O)Nc2ccc3c(c2)OCCO3)cc1`, the displacement was -1.3%.

Consider `COc1ccc(N(CC(=O)N/N=C/c2cccc3ccccc23)S(=O)(=O)c2ccccc2)cc1`, for which the displacement was 2.7%.

As for `CC(C)c1ccc(C2/C(=C(\O)c3ccccc3)C(=O)C(=O)N2Cc2cccnc2)cc1` (stereo not drawn), the displacement was -1.7%.

In the case of `CCN(CC)CC(O)Cn1c2c(c3ccccc31)CCCC2=O` (stereo not drawn), the displacement is 5.1%.

Regarding `Cc1ccc2oc(-c3cc(N)ccc3O)nc2c1`, the displacement is 5.4%.

With `Oc1cnc(Nc2nc3ccccc3s2)[nH]1`, the displacement came out at 2.2%.

As for `CCOc1cc(/C=C2/SC(=S)N(c3ccccc3)C2=O)ccc1OC(=O)c1ccco1`, the displacement came out at 9.9%.

As for `O=C(Nc1ccc(I)cc1Cl)c1ccco1`, the displacement is -8.5%.

Turning to `CCOC(=O)C(CCC(=O)CC(C)C)C(=O)OCC`, the displacement was -4%.

Consider `COc1ccc(Br)cc1/C=C1\C(=O)NC(=S)N(c2ccc(C)cc2)C1=O`, for which the displacement was -9.7%.

Take `O=C(Nc1ccc(N2CCOCC2)cc1)c1ccc(F)cc1`: the displacement came to 11.2%.

As for `CCCOc1c(I)cc(C2C3=C(CC(C)(C)CC3=O)OC3=C2C(=O)CC(C)(C)C3)cc1OC`, the displacement turned out to be 15.1%.

As for `CCN1C(=O)/C(=c2/s/c(=C3\C=Cc4ccccc4N3CC)c(=O)n2CC)SC1=S`, the displacement worked out at 14.9%.

For the compound `CC(C)(C)C(=O)CC(=O)c1ccccc1`, the displacement is 4.4%.

For the compound `Cc1ccc(Cl)cc1NC(=O)CSCC(=O)Nc1ccc2ccccc2c1`, the displacement is -0.2%.

Turning to `Cc1cc(/C=N/NC(=O)CC#N)c(C)n1-c1ccc(Cl)cc1`, the displacement was -12.8%.

As for `COc1ccccc1/C=C1\SC(=S)N(NC(=O)c2cccc([N+](=O)[O-])c2)C1=O`, the displacement was -5.7%.

Regarding `O=C1c2ccccc2NC(c2ccccc2F)N1c1ccc(Cl)cc1` (stereo not drawn), the displacement amounted to 9.6%.

Regarding `O=C(Nc1cc(Oc2ccccc2)cc([N+](=O)[O-])c1)c1cccc(Cl)c1`, the displacement was 1%.

Take `CCN(CC)c1ccc(N2C(=O)/C(=C/c3ccc(C)cc3)SC2=S)cc1`: the displacement was -7.6%.

As to `Cc1ccc(-n2nc3ccc(NC(=O)c4cc(Cl)ccc4I)cc3n2)cc1`, the displacement came out at 7.8%.

Consider `CCC(=O)Nc1ccc(NC(=O)COc2ccc(I)cc2)cc1`, for which the displacement was -2.1%.

As to `O=C1CC(N2CCN(CCO)CC2)C(=O)N1c1ccccc1` (stereo not drawn), the displacement stood at 7.5%.

For `Oc1ccccc1-c1cc(-c2ccco2)[nH]n1`, the displacement is 9.2%.

Turning to `O=C1CC(c2ccc(O)cc2)c2ccc3ccccc3c2N1` (stereo not drawn), the displacement is -7.4%.

Turning to `COc1ccc(COC(=O)C2=C(C)NC3=C(C(=O)CC(C)(C)C3)C2c2coc3ccc(C)cc3c2=O)cc1` (stereo not drawn), the displacement is -3.3%.

Turning to `CCOC(=O)N1CCN(C(=O)/C(=C/c2cccc([N+](=O)[O-])c2)NC(=O)c2ccccc2)CC1`, the displacement is -10.2%.

On to `O=C(COC(=O)c1cccc(C#Cc2ccccc2)c1)c1ccc([N+](=O)[O-])cc1`, for which the displacement turned out to be 9.9%.

Consider `COc1ccc(CNCc2cccc(Cl)c2)cc1`, for which the displacement was -7.7%.

Regarding `Cc1cc(C)c(N2C(=O)NC(=O)/C(=C/c3ccc([N+](=O)[O-])o3)C2=O)c(C)c1`, the displacement amounted to 45%.

Turning to `O=C(Nc1ncccn1)c1sc2ccccc2c1Cl`, the displacement is 5.9%.

`O=[N+]([O-])c1cccc(S(=O)(=O)Nc2ccc3c(c2)OCCO3)c1`: the displacement came out at 0.7%.

Regarding `O=c1[nH]c(=O)n(Cc2ccc(F)cc2)c(O)c1/C=C1\C=Nc2ccccc21`, the displacement stood at 51.3%.

For `Cc1csc(-c2coc3cc(OCC(=O)O)cc(C)c3c2=O)n1`, the displacement was -2.5%.

Turning to `CCc1ccccc1NC(=O)c1ccc(I)cc1`, the displacement is 7.5%.

In the case of `COc1ccc(N(CC(=O)NCCSc2ccccn2)S(=O)(=O)c2ccccc2)c(OC)c1`, the displacement was found to be 4.2%.

As to `O=C(Cc1ccccc1)Nc1ccc(-c2nnc(-c3ccco3)o2)cc1`, the displacement is 18.5%.

Regarding `COc1ccc(N(CC(=O)Nc2ccccc2)S(C)(=O)=O)c(OC)c1`, the displacement worked out at 7.2%.

As for `CCOc1ccccc1/C=C1/C(=O)NN(c2ccc(C)c(C)c2)C1=O`, the displacement is 15.4%.

In the case of `COc1ccc(C(NC(=O)c2ccccc2F)c2ccc(OC)c(OC)c2)cc1` (stereo not drawn), the displacement was -7%.

As to `CCc1ccc(NC(=O)C(=O)NCc2ccccc2Cl)cc1`, the displacement came to 3.3%.

As to `CCn1cc(C(=O)NN)c(=O)c2cc([N+](=O)[O-])ccc21`, the displacement came out at 49.5%.

`O=C(CSc1nc2ccccc2o1)NCc1ccccc1`: the displacement was -6.7%.

Turning to `O=C(c1cc([N+](=O)[O-])ccc1F)N1CCN(c2cc(N3CCCCC3)c(F)cc2[N+](=O)[O-])CC1`, the displacement is -6.6%.

As to `CN(C)C(=O)c1sc2ccccc2c1Cl`, the displacement worked out at 7.8%.

Turning to `O=C(Nc1nnc(-c2ccc3c(c2)OCO3)s1)c1sc2ccccc2c1Cl`, the displacement is 8%.

Consider `C=CCn1c(O)c(/C=C2\C(C)=Nc3ccccc32)c(=O)[nH]c1=S`, for which the displacement amounted to 5.4%.

On to `O=C(NCCNc1ccc(Cl)cc1[N+](=O)[O-])c1ccc(F)cc1`, for which the displacement was -14.4%.

As to `O=C(CCN1C(=O)/C(=C\c2cccs2)SC1=S)N1CCCC1`, the displacement was -0.2%.

For the compound `COc1ccc2ccccc2c1/C=N/N1C(=O)C2C(C1=O)C1C=CC2C12CC2` (stereo not drawn), the displacement amounted to 6.6%.

`O=S(=O)(Nc1cccc(I)c1)c1ccc(Cl)cc1`: the displacement was -9.7%.

For `COc1ccc(N(CC(=O)Nc2cc(OC)ccc2OC)S(C)(=O)=O)cc1`, the displacement stood at 1.3%.

For the compound `NC(=O)CNC1CC(=O)N(c2ccc(Br)cc2)C1=O` (stereo not drawn), the displacement was -4.1%.

As for `COc1ccc(NC2=C(Cl)C(=O)N(c3ccc(Br)cc3)C2=O)c(OC)c1`, the displacement is -16.3%.

For the compound `N#Cc1c(N)nc2c(c1-c1ccc3c(c1)OCO3)CCCCC2`, the displacement is -2.3%.

For `Cn1cnnc1Sc1cc(N2CCOCC2)ccc1[N+](=O)[O-]`, the displacement is 7.8%.

Turning to `N#CCCNc1cc2ccccc2cc1C(=O)O`, the displacement was 5.4%.

Consider `COc1ccc([N+](=O)[O-])cc1NS(=O)(=O)c1ccc(NC(C)=O)cc1`, for which the displacement was 5.2%.

In the case of `CCOc1ccccc1C(=O)Nc1nnc(CC)s1`, the displacement was determined as 7.5%.

For `CCOc1ccccc1NC(=O)CN(c1c(C)cccc1C)S(C)(=O)=O`, the displacement was 11.1%.

For the compound `Cc1sc(Nc2cccc(O)c2)nc1-c1ccccc1`, the displacement amounted to 7%.

`COc1ccc(C(=O)Nc2nc3ccc(C)cc3s2)cc1OC`: the displacement is -11.1%.

Regarding `COc1ccc(CN2CCN(C(=O)c3ccc(F)cc3)CC2)c(OC)c1OC`, the displacement was 1.3%.

On to `O=C(CSc1nc2sc3c(c2c(=O)[nH]1)CCc1ccccc1-3)c1ccc(Cl)cc1`, for which the displacement was -4%.

With `O=C1c2ccc3c4c(ccc(c24)C(=O)N1Nc1ccccc1)CC3`, the displacement was -6.8%.

Turning to `Cc1ccc(C(=O)Nc2ccc(I)cc2Cl)cc1[N+](=O)[O-]`, the displacement was 8.5%.

For the compound `O=S(=O)(c1ccc2ccccc2c1)N1CCN(C/C=C/c2ccccc2)CC1`, the displacement was -9.5%.

For `Cc1cccc(C2C(=O)c3ccccc3C2=O)c1C`, the displacement is -8.6%.

On to `CC(=O)C(C(=O)c1ccccc1)C1(O)C(=O)Nc2ccccc21` (stereo not drawn), for which the displacement was 8.1%.

Regarding `O=C(N/N=C\c1ccccc1Br)c1cnccn1`, the displacement was -2.2%.

Consider `CCC1=NN2C(=N)/C(=C/c3ccc(OC(=O)c4ccc(F)cc4)c(OC)c3)C(=O)N=C2S1`, for which the displacement is -15.4%.

For the compound `CCc1c(C)sc(NC(=O)C2CCCCC2)c1C(=O)OC(C)C`, the displacement is -9.7%.

In the case of `O=C(CCNc1ccccc1)c1ccc([N+](=O)[O-])cc1`, the displacement came out at 13.8%.

In the case of `COc1ccc(-c2[nH]ncc2C=O)cc1OC`, the displacement is -6.7%.

Regarding `COC(=O)c1ccc(NC(=O)c2cccc(Cl)c2Cl)cc1`, the displacement is -6.6%.

As for `O=C(Nc1cccc([N+](=O)[O-])c1)C1C(c2ccccc2)C1(Cl)Cl` (stereo not drawn), the displacement stood at 3.7%.

Consider `COc1cc(/C=C2/SC(=S)N(C)C2=O)cc(Cl)c1OCc1ccccc1Cl`, for which the displacement was 14.9%.

As for `CCCCNC(=O)NC(C(=O)OC)C12CC3CC(CC(C3)C1)C2` (stereo not drawn), the displacement came out at 14.2%.

On to `Cc1ccc(/C=C(/C#N)C(=O)Nc2cccc(Br)c2)cc1[N+](=O)[O-]`, for which the displacement was -15.1%.

In the case of `COc1cc2c(cc1OC)C(c1ccc([N+](=O)[O-])cc1)=NC(C)(C)C2`, the displacement was found to be 8.9%.

As to `Cc1sc2nc(-c3ccc([N+](=O)[O-])cc3)[nH]c(=O)c2c1C`, the displacement is -12.6%.

With `CCOc1cccc(C(=O)Nc2cc(-c3nc4ccccc4[nH]3)ccc2C)c1`, the displacement stood at 3.9%.

With `C=CCc1ccc(OCC(O)CN2C(C)CCCC2C)c(OC)c1` (stereo not drawn), the displacement was -8.7%.

`COc1cccc(NC(=O)C2CC2(c2cccc(OC)c2)c2cccc(OC)c2)c1` (stereo not drawn): the displacement is -8.3%.

For the compound `COCCOC(=O)C1=C(C)NC(=S)NC1c1ccc(Cl)cc1` (stereo not drawn), the displacement is 3.2%.

`NS(=O)(=O)c1cccc(NC(=O)c2sc3ccccc3c2Cl)c1`: the displacement is -0.1%.

On to `COC(=O)CNC(=O)CN(c1ccc(OC)cc1OC)S(=O)(=O)c1ccccc1`, for which the displacement is -5.1%.

For the compound `COc1cc(/C=N/Nc2nc(-c3ccccc3)c(-c3ccccc3)s2)ccc1O`, the displacement is -8.1%.

For `C=CCc1cc(/C=C2\C(=O)NC(=O)N(c3cc(C)cc(C)c3)C2=O)cc(OCC)c1OCC(=O)OC`, the displacement is -5.3%.

`CC(C)C(=O)Nc1ccc(-c2nc3ncccc3o2)cc1`: the displacement was -3.1%.

`COc1ccccc1N1CCN(C(=O)COc2cccc3ccccc23)CC1`: the displacement was -3.8%.

Turning to `O=C(N/N=C\c1ccccn1)c1n[nH]c2c1CCC2`, the displacement was -19.7%.

As to `CC(C)CC(=O)N1CCN(Cc2cccc(Oc3ccccc3)c2)CC1`, the displacement was -0.4%.

These data come from PubChem BioAssay AID1240 (Sanford-Burnham Center for Chemical Genomics, 2008).
